Test results from ChEMBL document CHEMBL4888484, “Replenishing the malaria drug discovery pipeline: Screening and hit evaluation of the MMV Hit Generation Library 1 (HGL1) against asexual blood stage Plasmodium falciparum ,using a nano luciferase reporter read-out” (2022).
Screen size: about 150,000 compounds; about 540 (0.36%) showed an effect of 50% or more. The list shows a part of the results.

test system: Plasmodium falciparum; experiment: Primary screen in NF54 nanoGlo assay, in single point, at 2uM, 72h; a lower Z score goes with more inhibition; assay type: functional, Erythrocyte; settings: timepoint 72 hour

Point of comparison: CC[C@H](C)N(Cc1ccccc1Cl)C(=O)c1cc(C)nc(N)n1, “% Inhibition” value 16%. Against it:
- Cc1nn(C)cc1[C@H](C)NC(=O)c1cc(-c2ccccc2)on1 — higher, 34%
- CS(=O)(=O)c1ccc(NC(=O)c2ccnc(OCC3CC3)c2)cc1 — lower, -14%
- CCN(CC)CC(=O)N1CCN(C(=O)c2cc3ccccn3c2)CC1 — lower, 0%
- CNC(=O)[C@@H](C)CN(C)Cc1cnc2ccc(Br)cn12 — lower, -6%
- CN1C(=O)N(c2ccc(-n3cccn3)nc2)C(=O)C12CCCCC2 — lower, -17%
- CCCn1ncnc1[C@H](C)NC(=O)c1ccn(C)c1C — lower, 15%
- CC(C)n1ccc(C(=O)N[C@@H](C)c2cn[nH]c2)n1 — lower, 9%
- CC(C)Cn1c(=O)c(N2CCN(C(=O)c3c[nH]c4ccccc34)CC2)nc2ccncc21 — lower, 1%
- CC(C)C[C@H](Nc1nccc(C(F)(F)F)n1)c1ncnn1C — lower, -22%
- O=C(c1c[nH]nn1)N1CCN(CC(=O)N2CCCc3ccccc32)CC1 — lower, -5%
- COc1cc(CN2CCC[C@H]2c2cccn2C)cc(OC)c1OC — lower, 0%
- C[C@@H](CNC(=O)Nc1ncc(C2CCCCC2)s1)c1nccs1 — lower, -23%
- Cc1n[nH]c([C@@H]2CN(Cc3ccoc3C)CCO2)n1 — lower, -6%
- CCCCn1c(N)c(N(Cc2ccccc2)C(=O)CN2CCn3cccc3[C@@H]2C)c(=O)[nH]c1=O — lower, 1%
- CCn1cnnc1NC(=O)c1cc(C(F)(F)F)c[nH]c1=O — lower, -11%
- COc1nccc(N[C@H]2CCOC[C@@H]2OCC2CC2)c1C#N — lower, -1%
- Cc1cccc(C)c1OCc1cc(C(=O)N[C@H]2CC[C@H](O)CC2)no1 — lower, -4%
- O=C(Nc1nc2c(s1)CCCC2)c1cc(-n2ccnc2)ccn1 — lower, -10%
- CN1CC[C@H]2CC(=O)Nc3cc(C(F)(F)F)ccc3OCC[C@H]2C1 — lower, 7%
- Cc1nc(C)c(C(=O)N2CC[C@H](CCOc3ccccc3)C2)s1 — lower, 2%
- CC(C)C[C@@H](CN(C)C)NC(=O)c1snnc1C1CC1 — lower, -9%
- Cc1ccc([C@H](CNC(=O)COc2ccc(Cl)cc2)N2CCC(C)CC2)o1 — lower, 2%

Point of comparison: CCCn1ncnc1[C@H](C)NC(=O)c1ccn(C)c1C, Z score -1.99. Against it:
- Cc1nn(C)cc1[C@H](C)NC(=O)c1cc(-c2ccccc2)on1 — lower, -4.57
- CS(=O)(=O)c1ccc(NC(=O)c2ccnc(OCC3CC3)c2)cc1 — higher, 2.65
- CC[C@H](C)N(Cc1ccccc1Cl)C(=O)c1cc(C)nc(N)n1 — higher, -1.98
- CCN(CC)CC(=O)N1CCN(C(=O)c2cc3ccccn3c2)CC1 — higher, 0.04
- CNC(=O)[C@@H](C)CN(C)Cc1cnc2ccc(Br)cn12 — higher, 0.72
- CN1C(=O)N(c2ccc(-n3cccn3)nc2)C(=O)C12CCCCC2 — higher, 1.84
- CC(C)n1ccc(C(=O)N[C@@H](C)c2cn[nH]c2)n1 — higher, -1.18
- CC(C)Cn1c(=O)c(N2CCN(C(=O)c3c[nH]c4ccccc34)CC2)nc2ccncc21 — higher, -0.05
- CC(C)C[C@H](Nc1nccc(C(F)(F)F)n1)c1ncnn1C — higher, 2.54
- O=C(c1c[nH]nn1)N1CCN(CC(=O)N2CCCc3ccccc32)CC1 — higher, 0.99
- COc1cc(CN2CCC[C@H]2c2cccn2C)cc(OC)c1OC — higher, 0.04
- C[C@@H](CNC(=O)Nc1ncc(C2CCCCC2)s1)c1nccs1 — higher, 2.3
- Cc1n[nH]c([C@@H]2CN(Cc3ccoc3C)CCO2)n1 — higher, 0.66
- CCCCn1c(N)c(N(Cc2ccccc2)C(=O)CN2CCn3cccc3[C@@H]2C)c(=O)[nH]c1=O — higher, -0.12
- CCn1cnnc1NC(=O)c1cc(C(F)(F)F)c[nH]c1=O — higher, 1.48
- COc1nccc(N[C@H]2CCOC[C@@H]2OCC2CC2)c1C#N — higher, 0.16
- Cc1cccc(C)c1OCc1cc(C(=O)N[C@H]2CC[C@H](O)CC2)no1 — higher, 0.8
- O=C(Nc1nc2c(s1)CCCC2)c1cc(-n2ccnc2)ccn1 — higher, 1.61
- CN1CC[C@H]2CC(=O)Nc3cc(C(F)(F)F)ccc3OCC[C@H]2C1 — higher, -0.86
- Cc1nc(C)c(C(=O)N2CC[C@H](CCOc3ccccc3)C2)s1 — higher, -0.4
- CC(C)C[C@@H](CN(C)C)NC(=O)c1snnc1C1CC1 — higher, 1.74
- Cc1ccc([C@H](CNC(=O)COc2ccc(Cl)cc2)N2CCC(C)CC2)o1 — higher, -0.39
